Experimental data reported in PMC4336329 (PLoS ONE, 2015).
The campaign covered roughly 310,000 compounds. About 2,200 (0.71%) showed an effect of 50% or more. The effect is printed as a negative number. This is one part of the list.

target: human ether-à-go-go-related gene (hERG) potassium channel (human, UniProt Q12809); assay: primary screen, population patch clamp on CHO cells stably expressing hERG
Sequence (Q12809 whole entry, looked up): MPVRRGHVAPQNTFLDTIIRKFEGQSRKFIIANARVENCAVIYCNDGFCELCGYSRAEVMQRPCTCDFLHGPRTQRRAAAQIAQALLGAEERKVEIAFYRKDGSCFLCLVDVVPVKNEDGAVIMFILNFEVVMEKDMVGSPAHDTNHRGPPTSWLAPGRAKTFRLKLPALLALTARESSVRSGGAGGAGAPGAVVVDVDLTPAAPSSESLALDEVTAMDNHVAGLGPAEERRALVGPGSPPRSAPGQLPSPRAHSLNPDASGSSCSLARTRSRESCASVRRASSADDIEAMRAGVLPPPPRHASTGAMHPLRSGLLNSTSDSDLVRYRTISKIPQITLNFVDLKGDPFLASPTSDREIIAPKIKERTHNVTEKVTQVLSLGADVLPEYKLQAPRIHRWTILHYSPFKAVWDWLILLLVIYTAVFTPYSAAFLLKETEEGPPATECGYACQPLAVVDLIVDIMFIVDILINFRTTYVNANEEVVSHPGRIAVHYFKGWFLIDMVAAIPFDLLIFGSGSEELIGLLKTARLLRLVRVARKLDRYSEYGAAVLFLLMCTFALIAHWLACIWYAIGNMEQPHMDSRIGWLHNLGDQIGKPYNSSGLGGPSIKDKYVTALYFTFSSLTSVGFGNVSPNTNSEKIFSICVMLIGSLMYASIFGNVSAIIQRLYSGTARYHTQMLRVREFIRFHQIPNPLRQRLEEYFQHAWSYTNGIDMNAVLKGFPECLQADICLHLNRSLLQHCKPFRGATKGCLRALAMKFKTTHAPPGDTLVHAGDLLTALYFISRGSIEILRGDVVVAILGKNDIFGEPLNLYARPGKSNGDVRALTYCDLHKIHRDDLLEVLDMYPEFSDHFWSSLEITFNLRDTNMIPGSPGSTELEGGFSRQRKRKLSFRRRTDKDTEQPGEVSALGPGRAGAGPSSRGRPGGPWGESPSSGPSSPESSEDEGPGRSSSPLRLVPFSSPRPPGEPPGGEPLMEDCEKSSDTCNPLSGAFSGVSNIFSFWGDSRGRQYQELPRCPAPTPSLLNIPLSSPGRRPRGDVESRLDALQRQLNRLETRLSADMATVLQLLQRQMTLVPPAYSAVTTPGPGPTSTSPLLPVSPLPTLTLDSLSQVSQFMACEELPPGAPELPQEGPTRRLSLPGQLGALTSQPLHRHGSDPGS

First: COc1ccc(NC(=S)N2CCN(c3ncccn3)CC2)c(OC)c1
Second: CCOc1ccc(S(=O)(=O)N2CCN(C(=S)NCc3ccccc3)CC2)cc1
The “hERG current change (%, negative = inhibition) at 1uM” value of the first is higher: 14.6% for the first, -5.62% for the second.

First: Cc1cc(NC(=O)CSc2ccc3nnc(-c4ccccc4)n3n2)no1
Second: CC(C)(C)c1nc2ccccc2c2nnc(SCC(=O)Nc3nc4ccccc4s3)n12
The “hERG current change (%, negative = inhibition) at 1uM” value of the first is lower: 1.79% for the first, 7.47% for the second.

Compared with `CCN(CC)c1ccc(NC(=O)c2ccc3c(c2)OCO3)cc1`, `Cc1cccc(OCC(=O)N/N=C/c2ccc3c(c2)OCO3)c1` is higher in “hERG current change (%, negative = inhibition) at 1uM” value: 11.2% for the first, 16.6% for the second.

First: OC1(c2ccc(Br)cc2)CN(c2ccccc2)C2=[N+]1CCS2.[Br-] (stereo not shown)
Second: Cc1ccc(N2Cc3ccccc3C2=O)cc1
The “hERG current change (%, negative = inhibition) at 1uM” value of the first is lower: 4.59% for the first, 13.1% for the second.

Going from `CCOC(=O)c1cnc(=O)[nH]c1C.Cl` to `CCOc1ccccc1NC(=O)Nc1ccc(Br)cn1`, the “hERG current change (%, negative = inhibition) at 1uM” value rises from -4.65% to 11.4%.

Compared with `COc1ccc(N2C(=O)CSC23C(=O)Nc2ccccc23)cc1OC` (stereo not shown), `COc1cc2c(cc1OC)CN(C(=O)c1nn(Cc3ccccc3)c(=O)c3ccccc13)CC2` is higher in “hERG current change (%, negative = inhibition) at 1uM” value: 9.91% for the first, 11.3% for the second.

Going from `CCOC(=O)C(Cc1ccc(OC)c([N+](=O)[O-])c1)NC(=O)CCC(=O)Nc1ccc(OC)cc1` (stereo not shown) to `COc1ccccc1N(CC(=O)NCc1ccccc1)C(=O)CCC(=O)Nc1cc(C)ccn1`, the “hERG current change (%, negative = inhibition) at 1uM” value rises from 1.57% to 9.95%.

Going from `COCCCNC(=O)Cn1cnc2sc(C)c(S(=O)(=O)N3CC(C)CC(C)C3)c2c1=O` (stereo not shown) to `CCOC(=O)N1CCN(S(=O)(=O)CCNC(=O)c2cccc(OC)c2)CC1`, the “hERG current change (%, negative = inhibition) at 1uM” value rises from 7.02% to 11.1%.

Compared with `NC(=S)N=Nc1c(O)n(Cc2ccccc2)c2ccccc12`, `Cn1c(O)c(C(=NCCc2c[nH]c3ccccc23)c2ccccc2)c(=O)n(C)c1=O` is lower in “hERG current change (%, negative = inhibition) at 1uM” value: 11.3% for the first, 7.13% for the second.

Going from `CC(=O)Nc1ccc2nc3ccccc3nc2c1` to `O=C(N/N=C/c1cccc2ccccc12)c1ccncc1`, the “hERG current change (%, negative = inhibition) at 1uM” value rises from 7.61% to 14.3%.

Going from `Cc1ccc(S(=O)(=O)Nc2cccc(-n3cnnn3)c2)cc1C` to `CCOC(=O)N1CCN(C(=O)c2ccc(Cl)c(S(=O)(=O)Nc3ccccc3)c2)CC1`, the “hERG current change (%, negative = inhibition) at 1uM” value falls from 15.2% to 10.7%.

First: CCOC(=O)C1CCN(c2cc(C)nc3cc(-c4cccc(F)c4)nn23)CC1
Second: COc1ccc(C(=O)N2CCC(C(=O)O)CC2)c2ccccc12
The “hERG current change (%, negative = inhibition) at 1uM” value of the first is lower: -1.27% for the first, 9.5% for the second.

Going from `O=C(NCc1ccccc1)c1ncn(Cc2ccccc2)c1C(=O)NCc1ccccc1` to `O=C(Nc1ccccc1C(=O)NCc1ccccc1)C1=CSCCO1`, the “hERG current change (%, negative = inhibition) at 1uM” value falls from 13.3% to 11.5%.

Going from `O=C(O)/C=C/C(=O)NCc1ccccc1` to `CCn1c(CNc2ccc(C)cc2)nnc1SCC(=O)NCc1ccccc1`, the “hERG current change (%, negative = inhibition) at 1uM” value falls from 11.4% to -2.06%.

First: Cc1ccc(C(c2nnnn2CCC(C)C)N2CCN(C)CC2)cc1.Cl (stereo not shown)
Second: Cc1ccc(OCC(O)CN2CCN(CC(O)COc3ccc(C)cc3)CC2)cc1 (stereo not shown)
The “hERG current change (%, negative = inhibition) at 1uM” value of the first is higher: 4.31% for the first, -8.83% for the second.

First: COc1ccccc1NC(=O)CN1C(=O)NC2(CCCCCCC2)C1=O
Second: Cc1cc(NC(=O)CN2C(=O)NC3(CCC(C)CC3)C2=O)no1 (stereo not shown)
The “hERG current change (%, negative = inhibition) at 1uM” value of the first is lower: 9.59% for the first, 24.7% for the second.

Going from `Cc1ccc(C(=O)NC(C)c2ccc(S(N)(=O)=O)cc2)s1` (stereo not shown) to `O=C1Nc2ccccc2C1=Nc1ccc(S(=O)(=O)Nc2nccs2)cc1`, the “hERG current change (%, negative = inhibition) at 1uM” value falls from 13.7% to 10.5%.

Going from `Cc1ccc(C)c(NC(=S)NCCc2c[nH]c3ccccc23)c1` to `Cc1ccc(CNC(=O)CCCc2cn(C)c3ccccc23)cc1`, the “hERG current change (%, negative = inhibition) at 1uM” value rises from 9.77% to 15.5%.

Going from `O=[N+]([O-])c1cc(/C=N/O)ccc1Oc1ccccc1Cl` to `COc1cc([N+](=O)[O-])cc(/C=N/NC(=O)CSc2ccccn2)c1O`, the “hERG current change (%, negative = inhibition) at 1uM” value falls from 10.1% to 6.72%.

First: N#Cc1cnc(NOCc2ccc(Cl)cc2)nc1
Second: CCCn1c(=O)c2ccccc2n2c(SCCOc3ccc(Cl)cc3)nnc12
The “hERG current change (%, negative = inhibition) at 1uM” value of the first is higher: 6.32% for the first, 1.37% for the second.

Going from `CC(=O)c1ccc(NC(=O)COC(=O)c2ccccc2Nc2ccccc2)cc1` to `CCOc1cc(/C=C(\C#N)C(=O)Nc2ccccc2C(=O)O)ccc1OC(=O)c1ccc(C)cc1`, the “hERG current change (%, negative = inhibition) at 1uM” value rises from 11.3% to 15.7%.

Going from `O=C1CCCN=C(Nc2ccc(F)c(Cl)c2)S1` to `O=C(Nc1ccc(N2CCOCC2)c(F)c1)c1cccs1`, the “hERG current change (%, negative = inhibition) at 1uM” value rises from 0.757% to 2.63%.

Compared with `O=C(CN1CCN(C(=O)c2ccco2)CC1)Nc1cccc(S(=O)(=O)N2CCCC2)c1`, `CN(CC(=O)Nc1ccc(F)cc1)c1ccc(S(=O)(=O)N2CCCCC2)cc1[N+](=O)[O-]` is lower in “hERG current change (%, negative = inhibition) at 1uM” value: 5.73% for the first, 2.32% for the second.

First: Cc1cccc2sc(NC(=O)C3CCCO3)nc12 (stereo not shown)
Second: CC(=O)Nc1nc2cc(N)ccc2s1
The “hERG current change (%, negative = inhibition) at 1uM” value of the first is higher: 11.9% for the first, 6.49% for the second.

Compared with `CCCN1CCC(=O)N(CCOc2ccccc2)CC1`, `CCC(=O)c1ccc(OCC(=O)N2CCN(C(=O)c3ccccc3)CC2)cc1` is higher in “hERG current change (%, negative = inhibition) at 1uM” value: 5.47% for the first, 11.3% for the second.

Going from `CCOC(=O)CSc1ccc(C(=O)N2CCC3(CC2)OCCO3)cc1[N+](=O)[O-]` to `CCn1c(CC(=O)Nc2ccc(OC)cc2)nnc1SCC(=O)N1CCOCC1`, the “hERG current change (%, negative = inhibition) at 1uM” value falls from 27% to 9.01%.

Compared with `Cc1cc(S(=O)(=O)NC2CCCCC2)ccc1OCC(=O)NCc1cccnc1`, `Cc1ccc(C(=O)OCC(=O)N2C(C)CCCC2C)cc1S(=O)(=O)N1CCCCC1` (stereo not shown) is lower in “hERG current change (%, negative = inhibition) at 1uM” value: -0.59% for the first, -7.96% for the second.

Compared with `Cc1ccc(NC(=O)CSc2n[nH]c(C)c2[N+](=O)[O-])cc1C`, `Cc1ccc(NC(=O)C/C(N)=N/O)cc1C` is lower in “hERG current change (%, negative = inhibition) at 1uM” value: 11% for the first, 9.79% for the second.

Compared with `Cc1ccc(NC2CCCN(C(=O)c3ccccc3N3CCOCC3)C2)cc1C` (stereo not shown), `CC(=O)c1c(N2CCOCC2)nc(=S)n(-c2ccccc2)c1C` is higher in “hERG current change (%, negative = inhibition) at 1uM” value: 2.04% for the first, 8.88% for the second.

Going from `Cn1c(CN2CCCCC2)nc2cc(NC(=O)c3ccc(Cl)cc3)ccc21` to `CCOc1ccc(C(=O)NNC(=O)C2CC(=O)N(c3ccc(C)cc3)C2)cc1` (stereo not shown), the “hERG current change (%, negative = inhibition) at 1uM” value rises from -27.6% to 10.7%.

Compared with `Nc1ccc(C23CC4CC(CC(CO)(C4)C2)C3)cc1`, `CC1(C)Cc2c(cnn2-c2ccc(F)cc2)C(NC(=O)CN2CCCCC2=O)C1` (stereo not shown) is lower in “hERG current change (%, negative = inhibition) at 1uM” value: 13.8% for the first, 8.93% for the second.

First: COC(=O)C1=C(C)NC(C)=C(C(=O)OC)C1C(=O)OCCN1C(=O)c2ccccc2C1=O
Second: COc1ccc(CCNC(=O)CS(=O)(=O)c2cn(CC(=O)N(C(C)C)C(C)C)c3ccccc23)cc1OC
The “hERG current change (%, negative = inhibition) at 1uM” value of the first is higher: 5.48% for the first, 5.26% for the second.

Compared with `CCCCN1C[C@H](Cc2ccccc2)[C@@H](CC(=O)Nc2ccccc2)C1=O`, `CCOC(=O)C1C(=O)C=C(c2cccs2)CC1c1ccccc1` (stereo not shown) is higher in “hERG current change (%, negative = inhibition) at 1uM” value: 9.55% for the first, 10.8% for the second.

First: O=S(=O)(Cc1cnc(Cl)s1)c1ccccc1
Second: O=S(=O)(NCc1ccc2c(c1)OCO2)c1ccc(Cl)s1
The “hERG current change (%, negative = inhibition) at 1uM” value of the first is higher: 13.2% for the first, 2.1% for the second.

Going from `COc1ccc(N2Cc3cccc(C(=O)N4CCOCC4)c3C2=O)cc1` to `CC1=C(C(=O)N2CCOCC2)C(c2cc(C)cs2)NC(=O)N1` (stereo not shown), the “hERG current change (%, negative = inhibition) at 1uM” value falls from 9.77% to 7.45%.

Going from `O=C(COc1ccccc1)NCCSCc1ccco1` to `CCc1ccc(NC(=O)N(Cc2ccco2)C(C)c2cccs2)cc1` (stereo not shown), the “hERG current change (%, negative = inhibition) at 1uM” value rises from 11.8% to 17.2%.

Going from `Cc1cnccc1CN(C)Cc1cn(C)nc1-c1cccc(Cl)c1` to `Cc1nc2c(-c3ccccc3)c(C)[nH]n2c(=O)c1Cl`, the “hERG current change (%, negative = inhibition) at 1uM” value falls from 7.15% to 4.53%.

Compared with `Cc1oc2cc(OCc3cnn(-c4ccccc4)c3)ccc2c(=O)c1Oc1ccccc1F`, `CC(C)NC(=O)/C(=C/c1cn(-c2ccccc2)nc1-c1cccc([N+](=O)[O-])c1)NC(=O)c1ccccc1` is higher in “hERG current change (%, negative = inhibition) at 1uM” value: 3.03% for the first, 4.69% for the second.

Compared with `Cc1cc(C)nc(SCC(=O)N/N=C\c2sccc2C)n1`, `COCCNc1cc(C)nc2ccccc12.Cl` is lower in “hERG current change (%, negative = inhibition) at 1uM” value: 5.1% for the first, 0.614% for the second.

First: COC(=O)c1cnc(Oc2ccc(NC(=O)NC(=O)c3c(OC)cccc3OC)cc2)cc1C(F)(F)F
Second: COCCNc1nc(-c2ccc(OC)cc2)c(-c2ccc(OC)cc2)s1
The “hERG current change (%, negative = inhibition) at 1uM” value of the first is lower: -0.442% for the first, 16% for the second.

Going from `CN1C[C@H](C(=O)NC2(C)OC3(O)[C@@H]4CCCN4C(=O)[C@H](Cc4ccccc4)N3C2=O)CC2c3cccc4[nH]cc(c34)C[C@H]21.CS(=O)(=O)O` (stereo partly shown) to `O=C(CSc1nnc(Cc2cccs2)n1C1CCCCC1)N1CCN(C(=O)c2ccco2)CC1`, the “hERG current change (%, negative = inhibition) at 1uM” value rises from 6.02% to 7.24%.

Going from `Cl.FC(F)(F)c1cccc(N2CCNCC2)c1` to `OCCN(Cc1ccccc1)Cc1cccc(C(F)(F)F)c1`, the “hERG current change (%, negative = inhibition) at 1uM” value rises from -4% to 10.9%.

Compared with `O=C(/C=C/c1ccc(Cl)cc1)NCCCN1CCOCC1`, `CN1[C@H]2CC[C@@H]1C(C(=O)N1CCOCC1)=C(O)C2` is higher in “hERG current change (%, negative = inhibition) at 1uM” value: -21.1% for the first, 14% for the second.

Going from `COCc1nc(-c2cc(OC)c(OC)c(OC)c2)no1` to `Nc1cc(N2CCCC2)c(Cl)cc1[N+](=O)[O-]`, the “hERG current change (%, negative = inhibition) at 1uM” value rises from -8.59% to 16.9%.
